Measurements from the supplement of paper PMC4604168 (melanoma cell lines).
The list shows a part of the results. Single values are uncertain, as repeats are few or missing.

tested on: SkMel5; test: cell count relative to DMSO control; melanoma cells; higher = more viable cells; details: library dose: standard library concentration; 72 h
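Also: cells treated in 1,536-well plates, then fixed and DAPI-stained, with nuclei counted from automated high-throughput microscope images.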

Compound | cell count [%]
Cc1ccc(NC(=O)c2cccc(N(C)C)c2)cc1NC(=O)c1ccc(O)cc1 + Cn1cc(/C=C2\C(=O)Nc3cccnc32)c2ccccc21 [GW441756] (first compound 10 µM, partner dose 2 µM) | 84.6
CC(C)(C)c1cnc(CSc2cnc(NC(=O)C3CCNCC3)s2)o1 + OCCn1cc(-c2cnc3nnn(Cc4ccc5ncccc5c4)c3n2)cn1 [PF04217903] (first compound 0.05 µM, partner dose 5 µM) | 69.1
NC(=O)c1ccc(N(C(N)=O)c2c(F)cccc2F)nc1-c1ccc(F)cc1F + CCCCCCCCc1ccc(CCC(N)(CO)CO)cc1 [fingolimod] (first compound 2 µM, partner dose 10 µM) | 38.2
NC(=O)c1ccc(N(C(N)=O)c2c(F)cccc2F)nc1-c1ccc(F)cc1F + C[C@@H](Oc1cc(-c2cnn(C3CCNCC3)c2)cnc1N)c1c(Cl)ccc(F)c1Cl [Crizotinib] (first compound 2 µM, partner dose 1 µM) | 75.7
CCCCCCCCc1ccc(CCC(N)(CO)CO)cc1 [fingolimod] + C=C(c1ccc(C(=O)O)cc1)c1cc2c(cc1C)C(C)(C)CCC2(C)C [Bexarotene] (first compound 10 µM, partner dose 10 µM) | 51.9
NC(=O)c1ccc(N(C(N)=O)c2c(F)cccc2F)nc1-c1ccc(F)cc1F + O=C(O)c1ccc(-c2c[nH]c3ncc(-c4ccccc4)cc23)cc1C1CCCC1 [GSK650394] (first compound 2 µM, partner dose 0.8 µM) | 83
CCCCCCCCc1ccc(CCC(N)(CO)CO)cc1 [fingolimod] + CS(=O)(=O)CCNCc1ccc(-c2ccc3ncnc(Nc4ccc(OCc5cccc(F)c5)c(Cl)c4)c3c2)o1 [lapatinib] (first compound 10 µM, partner dose 4 µM) | 15.4
CC(C)(C)c1cnc(CSc2cnc(NC(=O)C3CCNCC3)s2)o1 + CN(NC(=O)CC(=O)NN(C)C(=S)c1ccccc1)C(=S)c1ccccc1 [STA4783] (first compound 0.05 µM, partner dose 0.03 µM) | 36.2
CCCCCCCCc1ccc(CCC(N)(CO)CO)cc1 [fingolimod] + COc1ccc(Cl)c(Nc2nc3ccccc3nc2NS(=O)(=O)c2cccc(NC(=O)C(C)(C)N)c2)c1 [XL147] (first compound 10 µM, partner dose 4 µM) | 74.3
CCCCCCCCc1ccc(CCC(N)(CO)CO)cc1 [fingolimod] + C[C@@H]1CCN(C(=O)CC#N)C[C@@H]1N(C)c1ncnc2[nH]ccc12 [CP690550] (first compound 10 µM, partner dose 5 µM) | 76
COc1cc2c(Oc3ccc4[nH]c(C)cc4c3F)ncnc2cc1OCCCN1CCCC1 [cediranib] + CCN(CC)CCCCNc1ncc2cc(-c3cc(OC)cc(OC)c3)c(NC(=O)NC(C)(C)C)nc2n1 [PD173074] (first compound 2 µM, partner dose 0.5 µM) | 73.5
NC(=O)c1ccc(N(C(N)=O)c2c(F)cccc2F)nc1-c1ccc(F)cc1F + CN(C)S(=O)(=O)c1ccc2c(c1)/C(=C/c1cc3c([nH]1)CCCC3)C(=O)N2 [SU6656] (first compound 2 µM, partner dose 2 µM) | 86.3
CCCCCCCCc1ccc(CCC(N)(CO)CO)cc1 [fingolimod] + COCC[n+]1c2c(n(Cc3cnccn3)c1C)C(=O)c1ccccc1C2=O [YM155] (first compound 10 µM, partner dose 0.002 µM) | 38.1
CC(C)(C)c1cnc(CSc2cnc(NC(=O)C3CCNCC3)s2)o1 + COc1ccc2c(c1)CCC1C2CCC2(C)C(NCCCCCCN3C(=O)C=CC3=O)CCC12 [U73122] (first compound 0.05 µM, partner dose 2 µM) | 104
CC(C)(C)c1cnc(CSc2cnc(NC(=O)C3CCNCC3)s2)o1 + COc1ccc(COc2ccc(Cc3cnc(N)nc3N)cc2OC)cc1 [GW2580] (first compound 0.05 µM, partner dose 5 µM) | 75.8

tested on: UACC257; test: as above; details: library dose: standard library concentration; 72 h

Compound | cell count [%]
COc1cc2c(Oc3ccc4[nH]c(C)cc4c3F)ncnc2cc1OCCCN1CCCC1 [cediranib] + N#Cc1c(O)c2c(-c3ccc(-c4ccccc4O)cc3)csc2[nH]c1=O [A769662] (first compound 2 µM, partner dose 10 µM) | 97.3
CC(C)(C)c1cnc(CSc2cnc(NC(=O)C3CCNCC3)s2)o1 + CN(C)S(=O)(=O)c1ccc2c(c1)/C(=C/c1cc3c([nH]1)CCCC3)C(=O)N2 [SU6656] (first compound 0.05 µM, partner dose 2 µM) | 76.7
COc1cc2c(Oc3ccc4[nH]c(C)cc4c3F)ncnc2cc1OCCCN1CCCC1 [cediranib] + COc1ccc(COc2ccc(Cc3cnc(N)nc3N)cc2OC)cc1 [GW2580] (first compound 2 µM, partner dose 5 µM) | 83.4
CCCCCCCCc1ccc(CCC(N)(CO)CO)cc1 [fingolimod] + OCCn1cc(-c2cnc3nnn(Cc4ccc5ncccc5c4)c3n2)cn1 [PF04217903] (first compound 10 µM, partner dose 5 µM) | 72.8
NC(=O)c1ccc(N(C(N)=O)c2c(F)cccc2F)nc1-c1ccc(F)cc1F + Clc1ccc(Nc2nnc(Cc3ccncc3)c3ccccc23)cc1 [vatalanib] (first compound 2 µM, partner dose 10 µM) | 58.8
CCc1ccc(CCOc2ccc(CC3SC(=O)NC3=O)cc2)nc1 (centres undefined) [pioglitazone] + CC(C)CCN1c2nc(Nc3cc(F)c(O)c(F)c3)ncc2N(C)C(=O)C1C [BID1870] (first compound 10 µM, partner dose 1 µM) | 88.6
Cc1ccc(NC(=O)c2cccc(N(C)C)c2)cc1NC(=O)c1ccc(O)cc1 + CN(C)S(=O)(=O)c1ccc2c(c1)/C(=C/c1cc3c([nH]1)CCCC3)C(=O)N2 [SU6656] (first compound 10 µM, partner dose 2 µM) | 87.2
NC(=O)c1ccc(N(C(N)=O)c2c(F)cccc2F)nc1-c1ccc(F)cc1F + Cc1cc(N2CCOCC2)cc2[nH]c(-c3c(NC[C@@H](O)c4cccc(Cl)c4)cc[nH]c3=O)nc12 [BMS536924] (first compound 2 µM, partner dose 1 µM) | 91.9
Cc1ccc(NC(=O)c2cccc(N(C)C)c2)cc1NC(=O)c1ccc(O)cc1 + CCCCCCCCCCCC1=C(O)C(=O)C=C(O)C1=O [Embelin] (first compound 10 µM, partner dose 6 µM) | 86
CN(NC(=O)CC(=O)NN(C)C(=S)c1ccccc1)C(=S)c1ccccc1 + Cn1cc(/C=C2\C(=O)Nc3cccnc32)c2ccccc21 [GW441756] (first compound 0.03 µM, partner dose 2 µM) | 92.5
CCCCCCCCc1ccc(CCC(N)(CO)CO)cc1 [fingolimod] + O=C(O)[C@@H]1[O][Sb](=[O])([O][Sb]2(=[O])[O][C@H]([C@H](O)CO)[C@H](O)[C@H](C(=O)O)[O]2)[O][C@H]([C@H](O)CO)[C@@H]1O [stibogluconate] (first compound 10 µM, partner dose 10 µM) | 61.4
Cc1ccc(NC(=O)c2cccc(N(C)C)c2)cc1NC(=O)c1ccc(O)cc1 + COc1cc(N2CCC(N3CCN(C)CC3)CC2)ccc1Nc1ncc(Cl)c(Nc2ccccc2S(=O)(=O)C(C)C)n1 [NVP-TAE684] (first compound 10 µM, partner dose 0.4 µM) | 90.1
COc1cc2c(Oc3ccc4[nH]c(C)cc4c3F)ncnc2cc1OCCCN1CCCC1 [cediranib] + COc1cc(N2CCC(N3CCN(C)CC3)CC2)ccc1Nc1ncc(Cl)c(Nc2ccccc2S(=O)(=O)C(C)C)n1 [NVP-TAE684] (first compound 2 µM, partner dose 0.4 µM) | 79.9
COc1cc2c(Oc3ccc4[nH]c(C)cc4c3F)ncnc2cc1OCCCN1CCCC1 [cediranib] + Cn1cc(/C=C2\C(=O)Nc3cccnc32)c2ccccc21 [GW441756] (first compound 2 µM, partner dose 2 µM) | 67.8
COc1cc2c(Oc3ccc4[nH]c(C)cc4c3F)ncnc2cc1OCCCN1CCCC1 [cediranib] + Oc1cc(-c2nc(-c3ccccc3)[nH]c2-c2ccncc2)ccc1Cl [L779450] (first compound 2 µM, partner dose 1 µM) | 88.7
NC(=O)c1ccc(N(C(N)=O)c2c(F)cccc2F)nc1-c1ccc(F)cc1F + Cc1nc(Nc2ncc(C(=O)Nc3c(C)cccc3Cl)s2)cc(N2CCN(CCO)CC2)n1 [dasatanib] (first compound 2 µM, partner dose 0.02 µM) | 82.3
CC(C)(C)c1cnc(CSc2cnc(NC(=O)C3CCNCC3)s2)o1 + c1cc(-c2cnn3cc(-c4ccc(OCCN5CCCCC5)cc4)cnc23)ccn1 [Dorsomorphin] (first compound 0.05 µM, partner dose 2 µM) | 39.3
CC(C)(C)c1cnc(CSc2cnc(NC(=O)C3CCNCC3)s2)o1 + C[C@@H]1CCN(C(=O)CC#N)C[C@@H]1N(C)c1ncnc2[nH]ccc12 [CP690550] (first compound 0.05 µM, partner dose 5 µM) | 100
CC(C)(C)c1cnc(CSc2cnc(NC(=O)C3CCNCC3)s2)o1 + Oc1nc(-c2ccc(C(F)(F)F)cc2)nc2c1CSCC2 [XAV939] (first compound 0.05 µM, partner dose 10 µM) | 81.7
